In the supplement of paper PMC10441789:
The list shows a part of the results. Antibody binding of pooled human sera (four to six donors per pool; dilution not stated) to peptides of the Trypanosoma cruzi antigen TSSA on microarrays. Quantile-normalised fluorescence in arbitrary units, mean of duplicate arrays; higher = more binding. No active / inactive call. The uninfected pools are read here as the healthy donors of the same country. The strongest signals lie near the top of the scale (about 60,000).

system: pooled sera of chronic Chagas disease patients, Argentina; assay: antibody binding signal (normalised fluorescence) (arbitrary fluorescence units); higher = stronger serum antibody binding to peptide
Experimental: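 Microarray of 15-residue peptides over residues 30-55 of Trypanosoma cruzi TSSAII, each with 1 to 10 substitutions at naturally variable positions, probed with one serum pool per country.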

Row | Sequence | antibody binding signal
1 | TDNKPATGGTPSQPG | 861
2 | ENKPAAGGAPSPPGA | 418
3 | GKDKKAATGGTPSQP | 527
4 | GTDKKTAAGETPSQP | 260
5 | TPPSGTENKAAAGGT | 53600
6 | PSGKEKKPAAGEAPS | 10800
7 | DNKTAAGETPSPPGA | 310
8 | GKEKKAATGEAPSPS | 13900
9 | PSGKEKKTATGETPS | 4160
10 | DNKTATGETPSQSGA | 893
11 | PSGTDKKTAAGETPS | 1900
12 | EKKTATGGTPSPPGA | 761
13 | KKTATGETPSPPGAS | 173
14 | PPSGTEKKAATGGAP | 26300
15 | PPSGKENKPAAGETP | 10300
16 | TDKKPAAGEAPSQSG | 575
17 | TDKKAATGGAPSPSG | 1520
18 | KENKTATGGTPSQPG | 324
19 | SGTDKKTATGEAPSP | 12900
20 | SGTEKKTAAGGTPSP | 1280

Row | Sequence | antibody binding signal
21 | PSGTENKAAAGGAPS | 49300
22 | GTEKKPAAGEAPSPP | 4030
23 | SGTEKKPATGETPSQ | 33000
24 | TDNKAATGETPSQSG | 3190
25 | GKEKKPAAGGAPSQS | 5710
26 | GTEKKAAAGGTPSPS | 611
27 | KDKKTAAGEAPSPSG | 147
28 | GKDKKPAAGEAPSQP | 2790
29 | KDKKAATGGTPSQPG | 337
30 | GTENKTATGGAPSQS | 25300
31 | DKKPAAGETPSQSGA | 523
32 | SGKDNKPAAGGTPSQ | 704
33 | TPPSGKDNKTATGGA | 7440
34 | EKKAATGGTPSPSGA | 895
35 | GTENKAATGEAPSPP | 36100
36 | KKPAAGETPSQSGAS | 202
37 | GKDKKPATGGTPSQS | 539
38 | SGTDNKAATGEAPSQ | 25200
39 | NKPAAGGTPSPSGAS | 312
40 | GKEKKTATGGTPSPS | 1220
